Test results: PubChem BioAssay AID1477 (National Center for Advancing Translational Sciences (NCATS), 2009)
In all, about 230,000 compounds went through this assay and fewer than 10 were called active. Inconclusive means that the source gave no clear call. Such entries were picked first, then a sample of the others. The call rests on the fitted dose curve; in most records, active means well fitted curve in the direction sought with a large enough effect; inconclusive means small, poorly fitted or top-dose-only effect, or effect the other way, or another doubt; inactive means no such curve, though single readings can be large or run the other way. Potencies of inconclusive entries are left out as doubtful fits.

target: Runt-related transcription factor 1 (Homo sapiens) + Core-binding factor subunit beta (Homo sapiens) (UniProt Q01196+Q13951); experiment: qHTS Assay for Compounds Blocking the Interaction Between CBF-beta and RUNX1 for the Treatment of Acute Myeloid Leukemia; settings: AlphaScreen CBFb-His/RUNX1-biotin binding, biochemical; activity, negative = inhibition: at 59.8 µM (top of the series) unless noted; on activity, negative = inhibition: % of control where 0% means no effect
Sequence of UniProt Q01196 (Q01196 whole entry, looked up): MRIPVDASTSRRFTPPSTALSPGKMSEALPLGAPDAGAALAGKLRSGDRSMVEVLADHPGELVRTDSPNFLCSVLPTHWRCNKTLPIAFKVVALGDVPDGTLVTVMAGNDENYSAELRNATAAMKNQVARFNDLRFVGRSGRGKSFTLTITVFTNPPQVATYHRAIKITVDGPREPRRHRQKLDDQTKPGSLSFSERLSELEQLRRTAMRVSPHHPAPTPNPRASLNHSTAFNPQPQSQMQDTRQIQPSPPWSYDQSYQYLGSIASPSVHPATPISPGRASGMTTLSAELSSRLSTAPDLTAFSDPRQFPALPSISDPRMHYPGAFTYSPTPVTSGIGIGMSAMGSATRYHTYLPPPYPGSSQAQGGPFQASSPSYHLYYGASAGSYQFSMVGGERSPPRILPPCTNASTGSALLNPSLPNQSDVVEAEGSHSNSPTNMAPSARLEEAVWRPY
Sequence of UniProt Q01196 (Q13951 whole entry, looked up): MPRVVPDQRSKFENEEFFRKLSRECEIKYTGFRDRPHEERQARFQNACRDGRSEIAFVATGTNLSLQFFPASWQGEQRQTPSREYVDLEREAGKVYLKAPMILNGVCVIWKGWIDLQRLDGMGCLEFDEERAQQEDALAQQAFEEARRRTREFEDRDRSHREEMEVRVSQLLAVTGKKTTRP
Outline: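 AlphaScreen binding: CBFb-His and RUNX1-biotin (30 nM each) preincubated 20 min, compound added for 15 min, then nickel and streptavidin beads for 90 min, all at room temperature. Disruption of the interaction by any mechanism counts as activity.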

Structure (SMILES)	Potency	activity, negative = inhibition
COC(=O)c1cc2c(s1)-c1ccc(OC)cc1CC2	inconclusive [activator, partial curve]	–
CCCc1n[nH]c2c1/C(=N/O)CC(c1ccccc1)C2 (stereo not given)	–	inactive: 8.68%
Cc1ccc(S(=O)(=O)N2CCCCC2)cc1NC(=O)COC(=O)Cc1ccc(Cl)cc1	inconclusive [inhibitor, partial curve, poor fit]	–
O=C(c1ccc(C(F)(F)F)cc1)C1CCCN(Cc2cccn2-c2ncccn2)C1 (stereo not given)	–	inactive: -4.72%
COc1ccc(OC)c(-c2cc(C(=O)Nc3ccc(F)cc3F)no2)c1	–	inactive: -9.56%
Cc1ccc2c(c1)c1c3n2CCN[C@H]3CCC1	inconclusive [inhibitor, full curve]	–
CCN(CC)c1ccc(/C=N/NC(=O)CN2CCCc3ccccc32)cc1	inconclusive [inhibitor, single point]	–
N#Cc1nc(-c2ccco2)oc1N1CCN(c2cccc(Cl)c2)CC1	inconclusive [inhibitor, partial curve]	–
COc1cnc(-c2ccccn2)nc1Sc1c(Cl)cccc1Cl	inconclusive [inhibitor, partial curve]	–
O=C(CCCc1ccccc1)c1ccc2c(c1)OCCO2	inconclusive [activator, single point]	–
COc1ccc(C(=O)Cn2c(N3CCOCC3)nc3ccccc32)cc1OC	inconclusive [inhibitor, single point]	–
O=C(NC1CCCCCC1)C(=O)NC1CCCC1	–	inactive: 7.04%
CCOC(=O)c1cc(C)nc(Sc2ccc(C)cc2)c1C#N	inconclusive [activator, single point]	–
CCCCOc1ccc(CN2CCC(O)CC2)cc1	–	inactive: -4.13%
CC(C)(O)C(=O)O	inconclusive [activator, partial curve]	–
O=[N+]([O-])c1ccc(C=Nc2cccc3ccccc23)s1	inconclusive [inhibitor, single point]	–
O=C(Nc1nnc(SCc2ccc(F)cc2)s1)c1cccnc1Cl	–	inactive: -7.3%
O=c1c(-c2nc3ccccc3s2)cccn1Cc1ccc(Cl)c(Cl)c1	inconclusive [activator, single point]	–
O=C(Cn1cnc2ccccc21)Nc1ccc(SC(F)F)cc1	–	inactive: 13.5%
O=C(ON=C1CCN(S(=O)(=O)c2ccccc2)CC1)c1ccccc1	–	inactive: 1.49%
CC1=NN(c2nc3ccccc3[nH]2)C(=O)C1Cc1ccccc1 (stereo not given)	inconclusive [inhibitor, single point]	–
COc1ccc(C(=O)NC(=S)NNC(=O)c2c(-c3ccccc3)noc2C)cc1	inconclusive [inhibitor, single point]	–
Nc1cccc(Nc2ccccc2)c1	inconclusive [inhibitor, partial curve]	–
Cc1ccc(C(C(=O)Nc2ccc3c(c2)OCO3)N(C)C(=O)/C=C\c2ccc3c(c2)OCO3)cc1 (stereo not given)	inconclusive [inhibitor, single point]	–

Structure (SMILES)	Potency	activity, negative = inhibition
C#CCOCCOCCOCCNc1nc(N2CCN(C(=O)C([C@@H](C)CC)n3cc(C(N)CO)nn3)CC2)nc(N2CCN(C(=O)[C@H](CCC(=O)O)n3cc(C(N)[C@H](C)CC)nn3)CC2)n1 (stereo not given in full)	inconclusive [inhibitor, partial curve]	–
O=C(OCC(=O)N1CCN(C(=O)c2ccco2)CC1)c1cc(-c2ccco2)nc2ccccc12	inconclusive [inhibitor, partial curve]	–
O=C(NCC1CCCO1)c1csc(Nc2cccc3ccccc23)n1 (stereo not given)	inconclusive [inhibitor, partial curve]	–
CC[C@@H]1C(c2ccc(F)cc2)=NN(c2ccccc2)[C@H]1C(=O)N1CCOC1=O	inconclusive [activator, partial curve]	–
COc1ccc(N=C2NN=C(c3ccc4c(c3)OCCO4)CS2)cc1	inconclusive [inhibitor, partial curve]	–
Cc1cc(=O)oc2cc(O)cc(O)c12	inconclusive [activator, full curve]	–
CCC(C)Nc1nc(-c2cccc(OC)c2O)nc2ccccc12 (stereo not given)	inconclusive [inhibitor, partial curve]	–
CN1CCN(c2oc(COc3ccc(-c4ccccc4)cc3)nc2C#N)CC1	inconclusive [inhibitor, partial curve]	–
Fc1cccc(Cl)c1CNC(c1ccccc1)c1ccccc1	inconclusive [activator, partial curve]	–
CC(=O)N[C@@H](c1ccccc1)[C@]1(C)C[C@H]1[C@@H](C)C(=O)Nc1ccc2ccccc2c1	inconclusive [inhibitor, partial curve]	–
O=C(O/N=C\c1ccc(N2CCCCC2)c([N+](=O)[O-])c1)c1c(F)cccc1F	inconclusive [inhibitor, partial curve]	–
CC[n+]1c(/C=C/C=C/N(C(C)=O)c2ccccc2)sc2cc(OC)ccc21	inconclusive [inhibitor, single point]	–
FC(F)Sc1ccc(N=C2NN=C(c3ccc4c(c3)OCCO4)CS2)cc1	inconclusive [inhibitor, partial curve]	–
CCn1c(C)c(C(C)=O)c(N2CCN(c3ccc(OC)cc3)CC2)nc1=S	inconclusive [inhibitor, partial curve]	–
CC(=O)Nc1ccc(Sc2ccccc2C(=O)Nc2ccc(F)cc2)cn1	–	inactive: -7.78%
Cc1cccc(OCc2nc(C#N)c(NCc3ccc4c(c3)OCO4)o2)c1	inconclusive [inhibitor, single point]	–
COc1ccc(C(=O)CSc2[nH]c(=O)cc(C(F)(F)F)c2C#N)cc1	–	inactive: 0.437%
CNC1=CN=C(c2ccccc2)c2cc(Cl)ccc2N1	–	inactive: -2.94%
O=C(COc1ccccc1Cl)N1CCN(c2ccc([N+](=O)[O-])c(N3CCCCC3)c2)CC1	–	inactive: -1.03%
O=C(NNc1ccc([N+](=O)[O-])cc1)c1ccccc1Cl	–	inactive: -1.31%
O=C(CCc1nc2ccccc2s1)OCc1ccccc1F	inconclusive [activator, partial curve]	–
CCOc1ccccc1N1CCN(C/C=C/c2ccc(N(C)C)cc2)CC1	inconclusive [inhibitor, partial curve]	–
CC(=O)Nc1ccc(S(=O)(=O)NNC(=O)c2cccc(Br)c2)cc1	–	inactive: -2.39%
COCCNC(=O)NC12CC3CC(CC(C3)C1)C2	–	inactive: 18.4%

Structure (SMILES)	Potency	activity, negative = inhibition
O=C1C=C(c2ccccc2)C[C@H](c2cccs2)[C@H]1n1nnc([N+](=O)[O-])n1	inconclusive [inhibitor, single point]	–
Cc1cccc(OCc2n[nH]c(=S)o2)c1	–	inactive: -0.336%
Cc1c(C(=O)c2cccc3ccccc23)c2cccc3c2n1[C@H](CN1CCOCC1)CO3	inconclusive [inhibitor, partial curve]	–
Cc1ccc(-n2[nH]c(C)c(/C=N/Nc3ccc([N+](=O)[O-])cc3[N+](=O)[O-])c2=O)cc1C	inconclusive [inhibitor, single point]	–
CONC(=O)C1CCN(C(=O)OCc2ccccc2)CC1	inconclusive [activator, full curve, poor fit]	–
Cc1ccc(C2N(c3ccc(Cl)cc3)C(=O)N3CCCN23)cc1 (stereo not given)	–	inactive: 24.9%
CCn1c(COc2cccc(C)c2)nc2ccccc21	inconclusive [activator, partial curve, poor fit]	–
O=C(NC1CCCC1)C(c1ccc(Cl)cc1)N1CCOCC1 (stereo not given)	inconclusive [inhibitor, single point]	–
COc1ccc(CCNC(=O)CCc2nc3ccccc3[nH]2)cc1OC	inconclusive [activator, single point]	–
Clc1cc(Cl)cc(C2=N[C@@H](Cc3ccccc3)CO2)c1	–	inactive: 18.2% [at 89.1 µM]
COC(=O)[C@@]1(Cc2ccccc2)[C@@H]2[C@@H](CC(=O)[C@H]2CC(=O)C(=O)N(C)C)CN1C(=O)c1ccccc1	–	inactive: 4.34%
CN(C)/C=N/C(=S)Nc1ccc(Cl)cc1	–	inactive: -2.79%
CCn1cc([N+](=O)[O-])c(C(=O)N2N=C(c3ccc4ccccc4c3)CC2c2cc(Br)ccc2O)n1 (stereo not given)	–	inactive: -22.7%
CCCCOc1ccc(CSC(CC(=O)O)C(=O)O)cc1 (stereo not given)	–	inactive: -3.72%
COc1ccc(NC(=S)N/N=C/c2cccn2Cc2ccc(F)cc2Cl)cc1	inconclusive [inhibitor, single point]	–
CCOC(=O)c1c(-c2cccs2)csc1NC(=O)CC(C)C	inconclusive [activator, partial curve]	–
CCN(CC)S(=O)(=O)c1cccc(C(=O)N/N=C/c2c(C)nn(-c3ccccc3)c2Cl)c1	inconclusive [activator, partial curve]	–
CC(C)c1ccc(NC(=S)NCCc2c[nH]c3ccccc23)cc1	inconclusive [inhibitor, single point]	–
COc1cccc(N2CCN(Cc3ccc(Cl)cc3)CC2)c1	inconclusive [inhibitor, partial curve]	–
c1cncc(-c2nc(NCCCn3ccnc3)c3ccccc3n2)c1	inconclusive [inhibitor, single point]	–
O=C(NCc1ccco1)/C(=C\C=C\c1ccccc1)NC(=O)c1ccccc1Br	inconclusive [activator, full curve, poor fit]	–
O=C(CN1c2ccccc2Sc2ccccc21)N/N=C/c1ccc([N+](=O)[O-])cc1	inconclusive [inhibitor, single point]	–
